# Laboratory results as given in PubChem BioAssay AID686971 (National Center for Advancing Translational Sciences (NCATS), 2013).
# In all, about 360,000 compounds went through this assay and about 7,500 (2.1%) were called active. Inconclusive results, whose numbers are uncertain, are shown with a selection of clear calls. The call rests on the fitted dose curve; in most records, active means well fitted cell-killing curve with a large enough effect; inconclusive means small, poorly fitted or top-dose-only effect, or effect the other way, or another doubt; inactive means no such curve, though single readings can be large or run the other way. No potency is given beside an inconclusive call; the fits are too rough.
# Assay: qHTS for induction of synthetic lethality in tumor cells producing 2HG: qHTS for the HT-1080-IDH1KD cell line;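 on activity, negative = toxicity: 0% = DMSO wells and -100% = cell-free medium wells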
# Conditions: HT-1080 IDH1 knockdown viability, ATP luminescence, 48 h; activity, negative = toxicity: at 46.1 µM (top of the series) unless noted
# Summary of the method: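 HT-1080-IDH1KD cells (IDH1 knocked down), 750/well in RPMI with 5% FBS, treated with compound 48 h at 37 degrees C. Viability by CellTiter-Glo luminescence, normalised to DMSO and no-cell wells; concentration-response curves classed.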
# Potency means the concentration at half of the fitted maximal effect; tags describe the fitted curve by direction and shape.
SMILES,Potency,"activity, negative = toxicity"
COc1cccc(C(=O)Nc2nc(-c3ccccc3)c(-c3ccccc3)o2)c1,"inconclusive [cytotoxic, partial curve]",
CCOC(=O)C1(c2ccccc2)CCCNC1=O (centres undefined),"inconclusive [cytotoxic, full curve, poor fit]",
O=C(O)CCC(=O)Nc1ccc(-c2nc3ccc(C(=O)c4ccccc4)cc3[nH]2)cc1,"inconclusive [rising, partial curve]",
Cc1ccc(Cn2cc(CN3CC(N4CCCC4)CS3(=O)=O)nn2)cc1 (centres undefined),"inconclusive [cytotoxic, single point]",
O=C(N/N=C/c1ccccc1)c1cc(-c2ccc3c(c2)OCO3)n[nH]1,"inconclusive [cytotoxic, partial curve]",
CC(C)CC(N)c1csc(NC(=O)Nc2ccccc2Cc2ccccc2)n1 (centres undefined),"inconclusive [cytotoxic, single point]",
CC(=O)c1c(C)[nH]c(C(=O)CSc2ncnc3sc(-c4ccccc4)cc23)c1C,"inconclusive [cytotoxic, partial curve, poor fit]",
CCOC(=O)/C=C1\CN(Cc2cc(OC)c(OC)c(OC)c2)S(=O)(=O)c2ccccc21,,inactive: -10%
O=C(Cc1cccs1)NCc1ccc(F)cc1,,inactive: 2.56%
CCN(C(=O)COC(=O)CNS(=O)(=O)c1ccccc1)c1ccccc1,,inactive: 14.1%
CC1CC(C)CN(C(=O)CCCn2c(=S)[nH]c3ccccc3c2=O)C1 (centres undefined),,inactive: -7.86%
Cc1ccc(Sc2ccc(CO)cc2[N+](=O)[O-])cc1,"inconclusive [cytotoxic, partial curve]",
Cc1cc2nc(-c3nnnn3Cc3ccccc3)c(=O)[nH]c2cc1C,,inconclusive: -17.2% [cytotoxic]
COc1cc(C2C3=C(COC3=O)Oc3cc4c(cc32)OCO4)ccc1O (centres undefined),"inconclusive [cytotoxic, full curve]",
CCOc1ccc(C(C(=O)NC2CCCC2)N(CCOC)C(=O)CNC(=O)c2ccco2)cc1 (centres undefined),,inactive: 5.15%
COc1ccc(NC(=O)/C(Cl)=C(/Cl)S(=O)Cc2ccccc2Cl)cn1 (centres undefined),active: 16.4 µM,
O=C(NNc1ccccc1Br)C(O)(c1cccc(C(F)(F)F)c1)c1cccc(C(F)(F)F)c1,"inconclusive [cytotoxic, single point]",
CO/N=C\CC(=O)Nc1ccc(Cl)cc1Cl,active: 8.2 µM,
COC(=O)C(NC(=O)c1ccc(OC)cc1)(Nc1ncc(S(=O)(=O)c2ccc([N+](=O)[O-])cc2)s1)C(F)(F)F (centres undefined),"inconclusive [cytotoxic, single point]",
